The other results are listed elsewhere or left out.
What was measured:
Assay in all cases: glycan array binding signal (z-score within array); higher = stronger binding
Details in all cases: glycan notation: IUPAC condensed, linker removed
[1] = target: GlcNAc(b1-3)Gal(b1-3)GalNAc
Method in brief: (§1)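 Glycan array data came from 3228 arrays in the Consortium for Functional Glycomics database, and only arrays with an available protein sequence were kept. Glycan names were put into IUPAC-condensed notation, and columns mapping to the same glycan were averaged. The binding signal is a within-array Z-score, averaged across arrays of one protein sequence run at different concentrations or buffers and across linkers. A negative Z-score can be read as non-binding.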

GlcNAc(b1-3)Gal(b1-4)Glc = target: GlcNAc(b1-3)Gal(b1-4)Glc
Method in brief: as §1

[2] = target: GlcNAc(b1-3)Gal(b1-4)GlcNAc
Method in brief: as §1

[3] = target: GlcNAc(b1-3)Gal(b1-4)GlcNAc(b1-2)Man(a1-3)[GlcNAc(b1-3)Gal(b1-4)GlcNAc(b1-2)Man(a1-6)]Man(b1-4)GlcNAc(b1-4)GlcNAc
Method in brief: as §1

[4] = target: GlcNAc(b1-3)Gal(b1-4)GlcNAc(b1-2)Man(a1-3)[GlcNAc(b1-3)Gal(b1-4)GlcNAc(b1-2)Man(a1-6)]Man(b1-4)GlcNAc(b1-4)[Fuc(a1-6)]GlcNAc
Method in brief: as §1

[5] = target: GlcNAc(b1-3)Gal(b1-4)GlcNAc(b1-2)[GlcNAc(b1-3)Gal(b1-4)GlcNAc(b1-6)]Man(a1-6)[GlcNAc(b1-3)Gal(b1-4)GlcNAc(b1-2)Man(a1-3)]Man(b1-4)GlcNAc(b1-4)GlcNAc
Method in brief: as §1

[6] = target: GlcNAc(b1-3)Gal(b1-4)GlcNAc(b1-3)Gal(b1-4)GlcNAc
Method in brief: as §1

[7] = target: GlcNAc(b1-3)Gal(b1-4)GlcNAc(b1-3)Gal(b1-4)GlcNAc(b1-2)Man(a1-3)[GlcNAc(b1-3)Gal(b1-4)GlcNAc(b1-3)Gal(b1-4)GlcNAc(b1-2)Man(a1-6)]Man(b1-4)GlcNAc(b1-4)GlcNAc
Method in brief: as §1

[8] = target: GlcNAc(b1-3)Gal(b1-4)GlcNAc(b1-3)Gal(b1-4)GlcNAc(b1-2)Man(a1-3)[GlcNAc(b1-3)Gal(b1-4)GlcNAc(b1-3)Gal(b1-4)GlcNAc(b1-2)Man(a1-6)]Man(b1-4)GlcNAc(b1-4)[Fuc(a1-6)]GlcNAc
Method in brief: as §1

[9] = target: GlcNAc(b1-3)Gal(b1-4)GlcNAc(b1-3)Gal(b1-4)GlcNAc(b1-2)[GlcNAc(b1-3)Gal(b1-4)GlcNAc(b1-3)Gal(b1-4)GlcNAc(b1-6)]Man(a1-6)[GlcNAc(b1-3)Gal(b1-4)GlcNAc(b1-3)Gal(b1-4)GlcNAc(b1-2)Man(a1-3)]Man(b1-4)GlcNAc(b1-4)[Fuc(a1-6)]GlcNAc
Method in brief: as §1

[10] = target: GlcNAc(b1-3)Gal(b1-4)GlcNAc(b1-3)Gal(b1-4)GlcNAc(b1-3)Gal(b1-4)GlcNAc(b1-2)Man(a1-3)[GlcNAc(b1-3)Gal(b1-4)GlcNAc(b1-3)Gal(b1-4)GlcNAc(b1-3)Gal(b1-4)GlcNAc(b1-2)Man(a1-6)]Man(b1-4)GlcNAc(b1-4)GlcNAc
Method in brief: as §1

[11] = target: GlcNAc(b1-3)Gal(b1-4)GlcNAc(b1-3)Gal(b1-4)GlcNAc(b1-3)Gal(b1-4)GlcNAc(b1-2)Man(a1-3)[GlcNAc(b1-3)Gal(b1-4)GlcNAc(b1-3)Gal(b1-4)GlcNAc(b1-3)Gal(b1-4)GlcNAc(b1-2)Man(a1-6)]Man(b1-4)GlcNAc(b1-4)[Fuc(a1-6)]GlcNAc
Method in brief: as §1

[12] = target: GlcNAc(b1-3)Gal(b1-4)GlcNAc(b1-3)Gal(b1-4)GlcNAc(b1-3)Gal(b1-4)GlcNAc(b1-2)[GlcNAc(b1-3)Gal(b1-4)GlcNAc(b1-3)Gal(b1-4)GlcNAc(b1-3)Gal(b1-4)GlcNAc(b1-6)]Man(a1-6)[GlcNAc(b1-3)Gal(b1-4)GlcNAc(b1-3)Gal(b1-4)GlcNAc(b1-3)Gal(b1-4)GlcNAc(b1-2)Man(a1-3)]Man(b1-4)GlcNAc(b1-4)[Fuc(a1-6)]GlcNAc
Method in brief: as §1

[13] = target: GlcNAc(b1-3)Gal(b1-4)GlcNAc(b1-3)Gal(b1-4)GlcNAc(b1-3)Gal(b1-4)GlcNAc(b1-3)Gal(b1-4)GlcNAc(b1-2)Man(a1-3)[GlcNAc(b1-3)Gal(b1-4)GlcNAc(b1-3)Gal(b1-4)GlcNAc(b1-3)Gal(b1-4)GlcNAc(b1-3)Gal(b1-4)GlcNAc(b1-2)Man(a1-6)]Man(b1-4)GlcNAc(b1-4)GlcNAc
Method in brief: as §1

[14] = target: GlcNAc(b1-3)Gal(b1-4)GlcNAc(b1-3)Gal(b1-4)GlcNAc(b1-3)Gal(b1-4)GlcNAc(b1-3)Gal(b1-4)GlcNAc(b1-2)Man(a1-3)[GlcNAc(b1-3)Gal(b1-4)GlcNAc(b1-3)Gal(b1-4)GlcNAc(b1-3)Gal(b1-4)GlcNAc(b1-3)Gal(b1-4)GlcNAc(b1-2)Man(a1-6)]Man(b1-4)GlcNAc(b1-4)[Fuc(a1-6)]GlcNAc
Method in brief: as §1

[15] = target: GlcNAc(b1-3)Gal(b1-4)GlcNAc(b1-3)Gal(b1-4)GlcNAc(b1-3)Gal(b1-4)GlcNAc(b1-3)Gal(b1-4)GlcNAc(b1-2)[GlcNAc(b1-3)Gal(b1-4)GlcNAc(b1-3)Gal(b1-4)GlcNAc(b1-3)Gal(b1-4)GlcNAc(b1-3)Gal(b1-4)GlcNAc(b1-6)]Man(a1-6)[GlcNAc(b1-3)Gal(b1-4)GlcNAc(b1-3)Gal(b1-4)GlcNAc(b1-3)Gal(b1-4)GlcNAc(b1-3)Gal(b1-4)GlcNAc(b1-2)Man(a1-3)]Man(b1-4)GlcNAc(b1-4)[Fuc(a1-6)]GlcNAc
Method in brief: as §1

[16] = target: GlcNAc(b1-3)Gal(b1-4)GlcNAc(b1-3)Gal(b1-4)GlcNAc(b1-3)GalNAc
Method in brief: as §1

[17] = target: GlcNAc(b1-3)Gal(b1-4)GlcNAc(b1-3)GalNAc
Method in brief: as §1

[18] = target: GlcNAc(b1-3)Gal(b1-4)GlcNAc(b1-3)[GlcNAc(b1-3)Gal(b1-4)GlcNAc(b1-3)]GalNAc
Method in brief: as §1

[19] = target: GlcNAc(b1-3)Gal(b1-4)GlcNAc(b1-6)[Gal(b1-3)]GalNAc
Method in brief: as §1

[20] = target: GlcNAc(b1-3)Gal(b1-4)GlcNAc(b1-6)[GlcNAc(b1-3)Gal(b1-3)]GalNAc
Method in brief: as §1

[21] = target: GlcNAc(b1-3)Gal(b1-4)GlcNAc(b1-6)[GlcNAc(b1-3)]Gal(b1-4)GlcNAc
Method in brief: as §1

GlcNAc(b1-3)GalNAc = target: GlcNAc(b1-3)GalNAc
Method in brief: as §1

GlcNAc(b1-3)Man = target: GlcNAc(b1-3)Man
Method in brief: as §1

[22] = target: GlcNAc(b1-3)[GlcNAc(b1-4)][GlcNAc(b1-6)]GlcNAc
Method in brief: as §1

[23] = target: GlcNAc(b1-3)[GlcNAc(b1-6)]Gal(b1-4)GlcNAc
Method in brief: as §1

[24] = target: GlcNAc(b1-3)[GlcNAc(b1-6)]GalNAc
Method in brief: as §1

[25] = target: GlcNAc(b1-4)Gal(b1-4)GlcNAc
Method in brief: as §1

GlcNAc(b1-4)GlcNAc = target: GlcNAc(b1-4)GlcNAc
Method in brief: as §1

[26] = target: GlcNAc(b1-4)GlcNAc(b1-4)GlcNAc
Method in brief: as §1

[27] = target: GlcNAc(b1-4)GlcNAc(b1-4)GlcNAc(b1-4)GlcNAc(b1-4)GlcNAc
Method in brief: as §1

[28] = target: GlcNAc(b1-4)GlcNAc(b1-4)GlcNAc(b1-4)GlcNAc(b1-4)GlcNAc(b1-4)GlcNAc
Method in brief: as §1

[29] = target: GlcNAc(b1-4)[GlcNAc(b1-6)]GalNAc
Method in brief: as §1

[30] = target: GlcNAc(b1-6)Gal(b1-4)GlcNAc
Method in brief: as §1

GlcNAc(b1-6)GalNAc = target: GlcNAc(b1-6)GalNAc
Method in brief: as §1

[31] = target: GlcNAc6S(b1-3)Gal(b1-4)GlcNAc
Method in brief: as §1

Kdn(a2-3)Gal(b1-3)GalNAc = target: Kdn(a2-3)Gal(b1-3)GalNAc
Method in brief: as §1

Kdn(a2-3)Gal(b1-3)GlcNAc = target: Kdn(a2-3)Gal(b1-3)GlcNAc
Method in brief: as §1

Kdn(a2-3)Gal(b1-4)Glc = target: Kdn(a2-3)Gal(b1-4)Glc
Method in brief: as §1

Kdn(a2-3)Gal(b1-4)GlcNAc = target: Kdn(a2-3)Gal(b1-4)GlcNAc
Method in brief: as §1

[32] = target: Kdn(a2-3)Gal(b1-4)[Fuc(a1-3)]GlcNAc
Method in brief: as §1

Kdn(a2-6)Gal(b1-4)GlcNAc = target: Kdn(a2-6)Gal(b1-4)GlcNAc
Method in brief: as §1

[33] = target: Man(a1-2)Man(a1-2)Man(a1-3)Man
Method in brief: as §1

[34] = target: Man(a1-2)Man(a1-2)Man(a1-6)[Man(a1-3)]Man
Method in brief: as §1

Man(a1-2)Man(a1-3)Man = target: Man(a1-2)Man(a1-3)Man
Method in brief: as §1

B1: BC2LB (Burholderia cenocepacia), B4EH85_BURCJ (protein)
chain: MGSSHHHHHHSSGENLYFQGHMSQPFTHDDLYALLQLAGNDATAVQANGDQAVLDRMRQFMTAQLVEKLPQYDVFVDIATIPYSFDVGSWQNKVKTDAAGEVVACTVTWAGAPGVLPGAAAKFGVGAVVNYFSKATPH
glycan array binding signal (z-score) [1]: -0.128 | glycan array binding signal (z-score) (GlcNAc(b1-3)Gal(b1-4)Glc): -0.265 | glycan array binding signal (z-score) [2]: -0.202 | glycan array binding signal (z-score) [3]: -0.274 | glycan array binding signal (z-score) [4]: -0.14 | glycan array binding signal (z-score) [5]: 0.039 | glycan array binding signal (z-score) [6]: -0.231 | glycan array binding signal (z-score) [7]: -0.198 | glycan array binding signal (z-score) [8]: -0.217 | glycan array binding signal (z-score) [9]: -0.149 | glycan array binding signal (z-score) [10]: -0.195 | glycan array binding signal (z-score) [11]: -0.07 | glycan array binding signal (z-score) [12]: -0.161 | glycan array binding signal (z-score) [13]: -0.193 | glycan array binding signal (z-score) [14]: 0.242 | glycan array binding signal (z-score) [15]: -0.171 | glycan array binding signal (z-score) [16]: -0.251 | glycan array binding signal (z-score) [17]: 0.025 | glycan array binding signal (z-score) [18]: -0.092 | glycan array binding signal (z-score) [19]: -0.231 | glycan array binding signal (z-score) [20]: 0.053 | glycan array binding signal (z-score) [21]: -0.24 | glycan array binding signal (z-score) (GlcNAc(b1-3)GalNAc): 0.413 | glycan array binding signal (z-score) (GlcNAc(b1-3)Man): 0.118 | glycan array binding signal (z-score) [22]: -0.059 | glycan array binding signal (z-score) [23]: -0.319 | glycan array binding signal (z-score) [24]: -0.255 | glycan array binding signal (z-score) [25]: -0.284 | glycan array binding signal (z-score) (GlcNAc(b1-4)GlcNAc): -0.001 | glycan array binding signal (z-score) [26]: -0.065 | glycan array binding signal (z-score) [27]: 0.046 | glycan array binding signal (z-score) [28]: -0.031 | glycan array binding signal (z-score) [29]: -0.229 | glycan array binding signal (z-score) [30]: -0.17 | glycan array binding signal (z-score) (GlcNAc(b1-6)GalNAc): 0.219 | glycan array binding signal (z-score) [31]: 0.206 | glycan array binding signal (z-score) (Kdn(a2-3)Gal(b1-3)GalNAc): -0.056 | glycan array binding signal (z-score) (Kdn(a2-3)Gal(b1-3)GlcNAc): -0.201 | glycan array binding signal (z-score) (Kdn(a2-3)Gal(b1-4)Glc): 1.02 | glycan array binding signal (z-score) (Kdn(a2-3)Gal(b1-4)GlcNAc): -0.248 | glycan array binding signal (z-score) [32]: 0.453 | glycan array binding signal (z-score) (Kdn(a2-6)Gal(b1-4)GlcNAc): -0.073 | glycan array binding signal (z-score) [33]: -0.19 | glycan array binding signal (z-score) [34]: -0.189 | glycan array binding signal (z-score) (Man(a1-2)Man(a1-3)Man): -0.276

— the supplement of paper PMC8728848
